Here are results for 22 molecules from PMC12136788.

First the molecules themselves.
T1: UNK ZnF1-3 (human, UniProt Q9C0B0 31-174)
T1 sequence: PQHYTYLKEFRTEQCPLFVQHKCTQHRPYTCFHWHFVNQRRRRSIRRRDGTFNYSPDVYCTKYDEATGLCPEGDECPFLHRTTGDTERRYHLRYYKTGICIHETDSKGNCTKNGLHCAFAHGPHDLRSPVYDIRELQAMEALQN

B1: chr11:97543600:97543601:+_ENSMUSG00000038437_ENSMUST00000044730|mus_mus|motif|central (ssRNA)
RNA: GGGAGUUCUACAGUCCGACGAUCUUGGCUGCCCCAGGUCCAGAGGAAGAAAUGACAGAUAGACAGACAGGUUAAACAGACGGACCAUCUCUCUCUUUUUCUCUCACUCACACACACACUCACACACUCACAAUCUGUGGAGUCCAACAGAGGAUUGAGCAUCA
B2: chr4:40680069:40680070:+_ENSMUSG00000028410_ENSMUST00000030118|mus_hu|FALSE|FALSE (ssRNA)
RNA: GGGAGUUCUACAGUCCGACGAUCAAAAUCAGAGCUUUUAUAUUUGCGUUUAUUCUUCAUUUAACUUUUUAAAACACUACUAUAGUUUAUUAAAACAAAAACAAGAGCAAGUAGUGAGCAUAUUAUGAUUACAGUCCUUCACUCCAACAGAGGAUUGAGCAUCA
B3: chr2:64863866:64863867:-_ENSG00000179833_ENST00000313349|hu_mus|FALSE|FALSE (ssRNA)
RNA: GGGAGUUCUACAGUCCGACGAUCAAUUAAGACAGUCUUCUGCAAGCUGGGCUCUGUCAGAGGCCUGUGGUUAUACAGUUUCAUAAGGGAAAUGUUGAAGAUAGUCUGGCGCUGUAAGGUGUAAGACACCCUGGAUGGACCGUCCAACAGAGGAUUGAGCAUCA
B4: 95382642_95384677_1716_CDS_ENSMUSG00000032407_ENSMUST00000079659|mouse|control|control (ssRNA)
RNA: GGGAGUUCUACAGUCCGACGAUCUCGCAAGAUUUCUUCUAACUUAUCCCGCUGUUCUUCCUUGAGUGCUCCCUUCUUACUAGGUUCUUCUACAAACGCUUCUGUCUCUUGCUCCUCUGACAUCCCAUGAAGGUAUGGAUUUAACAACAGAGGAUUGAGCAUCA
B5: chr7:135612270:135612271:-_ENSG00000105887_ENST00000393085|hu_mus|hu_hu_hu_mus_False|88_98 (ssRNA)
RNA: GGGAGUUCUACAGUCCGACGAUCGUUUUUUUCUGAGUAAGUAUUACUUCAGUGGAGGGAAAACAAAACUUAACCUUUUAUUAAUGCGUGUUGUACCAAAAGCAGACAUUUUAGCUUCAUUUAUUCAAAAAUAUUAACAUUAAGCAACAGAGGAUUGAGCAUCA
B6: 23457221_23464205_356_3pUTR_ENSG00000168434_ENST00000307149|human|control|control (ssRNA)
RNA: GGGAGUUCUACAGUCCGACGAUCUUUAGGGCUUCAACAUCACGGAGCACUUUGGGCAUGUUCUGGAGAGCUUGGUGACUUGUUUCCUCCACGGCGUGGUUCACCUCUUGGAUGAACAGCUGCAGCUUCAUCACCAGGGUGGCUCAACAGAGGAUUGAGCAUCA
B7: chrM:5821:5822:+_ENSMUSG00000064351_ENSMUST00000082402|mus_mus|FALSE|FALSE (ssRNA)
RNA: GGGAGUUCUACAGUCCGACGAUCCUGUGUUAUGGCUGGGGGUUUCAUGUUGAUAAUAGUGGUAAUAAAAUUAAUUGCACCUAAAAUAGAUGACACUCCAGCUAAAUGAAGGGAGAAAAUUGUUAGGUCUACUGAUGCUCCUGCCAACAGAGGAUUGAGCAUCA
B8: chr12:39756943:39756944:-_ENSG00000139116_ENST00000544797|hu_mus|hu_hu_hu_mus_False|8_78 (ssRNA)
RNA: GGGAGUUCUACAGUCCGACGAUCGGUUUGGCUGUUACCCCCAAGGGAAUCCUGCAAUAGUCUUGUUAGCUUAGAGUCUCUGUAAGGGACAUGGGUGGCUCUCUUGCUCUUGUCCCCCAAGGCGCUGAUUACAUUGCCAAGAGCCAACAGAGGAUUGAGCAUCA
B9: chr4:115894766:115894767:+_ENSMUSG00000028698_ENSMUST00000030464|mus_hu|mus_mus_mus_hu_True|58_68 (ssRNA)
RNA: GGGAGUUCUACAGUCCGACGAUCUUCCACACGGAAAUGUACUUCGGGUUUUCCAACGGCCAGUACCGUCCAGCCAAACUACUAGGAACAGGGUCCUCCCCCUCUCUCCUACAGAACACAACAAAAUGCCCCCGAACUUUCAAGCAACAGAGGAUUGAGCAUCA
B10: 21504503_21511602_2340_CDS_ENSMUSG00000033653_ENSMUST00000117598|mouse|control|control (ssRNA)
RNA: GGGAGUUCUACAGUCCGACGAUCAACUUGCUCAUCUGUAAGAGUCUUCCCUGCAUUCAGAGGUGGGGCGAUGACUUUGAAAAGCUUCUCCAUCGGACUGAUAAACUCAUUCAUGCCUCGGUUGUAGACAUAGACCAUGGCGUCCAACAGAGGAUUGAGCAUCA
B11: chr2:168013125:168013126:-_ENSMUSG00000051149_ENSMUST00000088001|mus_hu|motif|central (ssRNA)
RNA: GGGAGUUCUACAGUCCGACGAUCCUCCCAUGUAGUGUUUUUCAAAUAAAAGUCAUUAGGUUCAAAUUGUUUAAAAUCUUCGGUAUGUUCUUUACAGUAUUCCAACCCAAUGUCACUAAGUAUUUUUUUCACAGUUUUCCGGGCCAACAGAGGAUUGAGCAUCA
B12: chr2:162087991:162087992:+_ENSG00000136560_ENST00000392749|hu_hu|motif|central (ssRNA)
RNA: GGGAGUUCUACAGUCCGACGAUCUUUUCCCGGGGAAUCGAGUGAGGGAAAAGGUGCAUCAGAUGGGUCCAGAAGUGGGAAGCGGUUUACAUAUAAUGCAUUAUGGUCUCCAGGUGGCAAACACGCAGCUCUAUCCAGAGUUGUCAACAGAGGAUUGAGCAUCA
B13: 202488984_202490807_1239_3pUTR_ENSG00000155755_ENST00000286196|human|control|control (ssRNA)
RNA: GGGAGUUCUACAGUCCGACGAUCGAGGCUUUGAUUUCUUUCUCUUUAUCAGGAUAUUCUUCCACCUCUGAGGAGAACAUUAACUCUUCACUAAGAUCCAUGCCUGGCCUAUAAGACAAAAAUAGCCAAGAUAAUCCAACCAGACAACAGAGGAUUGAGCAUCA
B14: chr11:82972979:82972980:-_ENSG00000137500_ENST00000527495|hu_mus|motif|central (ssRNA)
RNA: GGGAGUUCUACAGUCCGACGAUCGCAGCAGCGGCAGCAUCAUCGUCAGUUCUCCUUCCAGAACCUAUAAAACCCCAAUGCGGUCGCCAAGCAAGUGAACACUGAGGCUGCAAGAUAACGAAUUGUUUCAAGUUUGCUCGACUCCAACAGAGGAUUGAGCAUCA
B15: chr7:141438946:141438947:+_ENSG00000106028_ENST00000265304|hu_mus|hu_hu_hu_mus_True|18_78 (ssRNA)
RNA: GGGAGUUCUACAGUCCGACGAUCGACGAAAUACCUGUAACACAGGUCUUCGAAACAUUCUAUUUUCUUUUCUUACAACCUAAUCUUUAGGCUUUUCCUAAAGGAAAGAAAGAAAAGGCCCAGCCACUAAAUCAAGAAACUACACAACAGAGGAUUGAGCAUCA
B16: chr22:19452774:19452775:-_ENSG00000070010_ENST00000399523|hu_hu|hu_hu_hu_mus_False|8_28 (ssRNA)
RNA: GGGAGUUCUACAGUCCGACGAUCCUUCUCAUUGUAGUUGAUAGCAAUCACAUCUCCAGUCGUCAGACAGGCGAAGUUUCUCAAUGCAUUUUCUAAUACCGCUUUAGGGUUGGUGAUAUCCAGGAAGUCAGGGCUCUGAGGCUGCAACAGAGGAUUGAGCAUCA
B17: chr1:39494564:39494565:+_ENSG00000168653_ENST00000372967|hu_hu|hu_hu_hu_mus_True|1_78 (ssRNA)
RNA: GGGAGUUCUACAGUCCGACGAUCAUGCAUUCGCCUCAUCGUUUUGUACCGAAGCAAACACUCUACGAAGUCAUCGAACUCUAUCUUGCACUCCUUUUUCGCCCGGGUCCCACCGAUCCCGUGUGCACACUCUAUCCAUUCUUUCAACAGAGGAUUGAGCAUCA
B18: chr5:52541547:52541548:-_ENSMUSG00000029169_ENSMUST00000031061|mus_mus|motif|central (ssRNA)
RNA: GGGAGUUCUACAGUCCGACGAUCUAUGGAGACAGAAGAUUGUGUCUACAGAAGCACAAGUUGUAACAUUUCACAACUUCGGAAAGGAAUGUCAACAAUUACAACGAUCAUGCAUACCAUGGUCGAUAAUCACAUUUUAGAAGCCAACAGAGGAUUGAGCAUCA
B19: 129699038_129699158_1198_3pUTR_ENSMUSG00000026349_ENSMUST00000027587|mouse|control|control (ssRNA)
RNA: GGGAGUUCUACAGUCCGACGAUCAGCAACUUUGUCCGGCCUGUGAUGUAAUCCAGAAUGCAGUGCCAUUGAAGGUCCCUGCUGGAAGCUUAUGUACUGGCUCCCAGAGAGAGUGGCCUCCUGUUUCUGUGUGUACACUGGGUCCAACAGAGGAUUGAGCAUCA
B20: 21912454_21924271_102_5pUTR_ENSG00000158856_ENST00000443491|human|control|control (ssRNA)
RNA: GGGAGUUCUACAGUCCGACGAUCGCUGGCGCGUUCCCCCGGGCUGGCGCGUCCUCAUCCCUCGGCGGUGACUCUCCAGGCUUCAAGGGCCCAGGGCGUGGGGCAGGAGCGCAGCAGCCUCCUCGGUGACAUACACCUCCAUCCCAACAGAGGAUUGAGCAUCA
B21: chr3:95657547:95657548:-_ENSMUSG00000015748_ENSMUST00000015892|mus_mus|motif|central (ssRNA)
RNA: GGGAGUUCUACAGUCCGACGAUCUUAGACAGCGCCAUUUCGGAGAAAAUGGAGAAUGAGAGCUCCAAUGGGACAAAAAAACGGCACCUCACAAACUUCAGCCCCUGAGACGGAGCCCGAACGUUACACCGGAACCGGAAACCUCAACAGAGGAUUGAGCAUCA
B22: chr3:150289932:150289933:+_ENSG00000144895_ENST00000460851|hu_hu|hu_hu_hu_mus_False|28_108 (ssRNA)
RNA: GGGAGUUCUACAGUCCGACGAUCCUUGUAGUUUUUCACAUCCCAUACUUCCAUUUGUCCUCGAAGAUUUCCAAAUCCAGCCAGCACUAAUAUAUGUCCAUGAGGGCUAUAGUAGGCUGCGUUGCGAGGACCAGUCCCAAAGUCCAACAGAGGAUUGAGCAUCA

Some of the results follow.

This experiment concerns the target T1, UNK ZnF1-3. The experiment can be described thus: nsRBNS (natural sequence RNA bind-n-seq); RBNS binding buffer (assumed for nsRBNS): 25 mM Tris pH 7.5, 150 mM KCl, 3 mM MgCl2, 0.01% Triton X-100, 500 ug/ml BSA, 20 U/ml SUPERase-In, 4 C; UNK is unkempt and MSI1 is Musashi-1; names of the RNAs are library labels; protein concentration not given here; high values mean tight binding.
B1 yielded a binding signal of 1.7 enrichment R.
In the case of B2, the binding signal was 0.879 enrichment R.
In turn, B3 returned a binding signal of 0.693 enrichment R.
The same measure for B4: 0.559 enrichment R; for B5: 1.18 enrichment R; for B6: 0.804 enrichment R.
In the case of B7, the binding signal is 1.19 enrichment R.
Molecule B8 returned a binding signal of 0.614 enrichment R.
The molecule B9 returned a binding signal of 1.14 enrichment R.
B10 had a binding signal of 1.06 enrichment R.
As for B11, the binding signal turned out to be 1.24 enrichment R.
B12 showed a binding signal of 1.36 enrichment R.
The result for B13 reads 1.52 enrichment R.
The molecule B14 gave a binding signal of 1.32 enrichment R.
Regarding B15, the binding signal was 0.824 enrichment R.
The same measure for B16: 0.906 enrichment R.
Molecule B17 had a binding signal of 0.723 enrichment R.
For B18, the binding signal was determined as 1.24 enrichment R.
B19 came in with a binding signal of 0.344 enrichment R.
Molecule B20 gave a binding signal of 0.698 enrichment R.
The same measure for B21: 1.13 enrichment R; for B22: 0.945 enrichment R.
